{"source": "PubChem BioAssay AID686979", "about": "(National Center for Advancing Translational Sciences (NCATS), 2013)", "note": "Values joined by “and” are separate entries in the source; they are usually repeats but may differ in a detail not shown here. Identical values can stand only once. In all, about 420,000 compounds went through this assay and about 50,000 (12%) were called active. Inconclusive results, whose numbers are uncertain, are shown with a selection of clear calls. The call rests on the fitted dose curve; in most records, active means well fitted inhibition curve with a large enough effect; inconclusive means small, poorly fitted or top-dose-only effect; inactive means flat fitted curve, though single readings scatter. Potencies beside an inconclusive call are fits to weak or partial responses and may not hold up. Where a structure was tested more than once in an assay, its records may differ in their call. On the % scale 0 is the no-effect control and ±100 the full control effect; potency means the concentration at half of the fitted maximal effect; tags describe the fitted curve by direction and shape."}
{"assay": "qHTS for Inhibitors of human tyrosyl-DNA phosphodiesterase 1 (TDP1): qHTS in cells in presence of CPT; further: nearly all actives have a fitted effect of over 55% in size", "conditions": "chicken DT40 Tdp1-/-;hTDP1 cells + 20 nM CPT, ATP luminescence, 48 h; activity change, negative = growth inhibition: at 46.2 µM (top of the series) unless noted", "in_short": "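Chicken DT40 Tdp1-/- cells stably complemented with human TDP1 were seeded at 400 cells/well in medium containing 20 nM camptothecin, exposed to pin-transferred compounds, and grown at 37 °C for at least 48 hr. Viability was read as ATP luminescence.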"}
{"smiles": "Cc1ccc(Nc2nc3ccccc3c(=O)s2)cc1C", "Potency": "active: 16.4 µM"}
{"smiles": "Cc1ccc(NC(=O)CSc2ccc3c(c2)OCCO3)nc1", "activity change, negative = growth inhibition": "inactive: -0.797%"}
{"smiles": "COc1cc(NC(C)CCCN)c2ncccc2c1", "note": "(configuration not stated)", "Potency": "inactive and inconclusive: 14.3 µM [inhibitor, single point] and inconclusive: 20.6 µM [inhibitor, single point]"}
{"smiles": "CC(C)NC(=O)C1(C)CCN1C(=O)C(c1ccccc1)c1ccccc1", "note": "(configuration not stated)", "activity change, negative = growth inhibition": "inactive: -8.95%"}
{"smiles": "COc1ccc(CCNC(=O)c2cc(=O)[nH]c3ccc(S(=O)(=O)N4CCCCC4C)cc23)cc1OC", "note": "(configuration not stated)", "activity change, negative = growth inhibition": "inactive: -10.2%"}
{"smiles": "O=C(NC(=S)Nc1ccc(Cc2ccncc2)cc1)c1ccccc1F", "Potency": "inconclusive: 29.1 µM [inhibitor, single point]"}
{"smiles": "CC(C)c1ccc(Cn2ccc3c4c(N)nc(NC5CC5)nc4ccc32)cc1", "Potency": "active: 4.73 µM"}
{"smiles": "COc1ccc(-c2ccc(-c3noc(-c4cccc(OC)c4)n3)c(OC)n2)cc1", "activity change, negative = growth inhibition": "inactive: -22.9%"}
{"smiles": "Cn1c(=O)n(C)c2cc(S(=O)(=O)NCc3ccccc3)ccc21", "Potency": "inconclusive: 29.1 µM [inhibitor, single point]"}
{"smiles": "CCOC(=O)c1c(N)n(-c2cc(C)cc(C)c2)c2nc3ccccc3nc12", "Potency": "inconclusive: 2.31 µM [inhibitor, full curve]"}
{"smiles": "COc1cccc(NC(=O)Cc2csc(COc3cccc(C)c3)n2)c1", "Potency": "inconclusive: 29.1 µM [inhibitor, single point]"}
{"smiles": "O=C(CCc1nc(-c2ccccc2)no1)Nc1cc(C(F)(F)F)ccc1Cl", "Potency": "inconclusive: 14.6 µM [inhibitor, partial curve]"}
{"smiles": "CCOc1ccccc1C(=O)NC(C(=O)OCC(=O)Nc1nnc(-c2ccccc2)o1)C(C)C", "note": "(configuration not stated)", "activity change, negative = growth inhibition": "inactive: -8.49%"}
{"smiles": "CC(C)(C)C(=O)N1CCN(c2ccc3c(c2)C2CC3CCN2C(=O)OCc2ccccc2)CC1", "note": "(configuration not stated)", "Potency": "inconclusive: 25.9 µM [inhibitor, single point]"}
{"smiles": "O=C(Nc1cc(Cl)cc(Cl)c1)c1cc(S(=O)(=O)N2CCC3(CC2)OCCO3)ccc1F", "Potency": "active: 20.6 µM"}
{"smiles": "Cc1noc(C)c1COc1ccccc1C(=O)NCCc1ccc(S(N)(=O)=O)cc1", "activity change, negative = growth inhibition": "inactive: 7.83%"}
{"smiles": "O=C1CC(=O)Nc2cc(S(=O)(=O)N3CCN(c4cccc(C(F)(F)F)c4)CC3)ccc2N1", "activity change, negative = growth inhibition": "inactive: 5.71%"}
{"smiles": "CCCCn1c(N)c(N(CCOC)C(=O)c2ccc3c(c2)C(=O)N(c2cc(C)ccc2C)C3=O)c(=O)[nH]c1=O", "activity change, negative = growth inhibition": "inactive: -13.1%"}
{"smiles": "COc1ccc(C(=O)c2c3ccc(OC)cc3[n+]([O-])n2CCCC(N)=O)cc1", "activity change, negative = growth inhibition": "inactive: -1.42%"}
{"smiles": "COc1ccc(CCNC(=O)COC(=O)c2cc(=O)c3ccccc3o2)cc1", "activity change, negative = growth inhibition": "inactive: 2.28%"}
{"smiles": "CCCCNC(=O)C1CCC(=O)N1CCc1ccccc1", "note": "(configuration not stated)", "activity change, negative = growth inhibition": "inactive: 29.2%"}
{"smiles": "CCN1CCCC1CNC(=O)c1cc(N)ccc1OC", "note": "(configuration not stated)", "activity change, negative = growth inhibition": "inactive: -4.8%"}
{"smiles": "CCn1c(Oc2ccccc2)nc2c1c(=O)n(C)c(=O)n2C", "Potency": "inconclusive: 14.6 µM [inhibitor, partial curve]"}
{"smiles": "CN(C(=O)c1cccc(NC(=O)c2ccco2)c1)c1ccccc1", "activity change, negative = growth inhibition": "inactive: -4.46%"}
{"smiles": "O=C(Nc1ccccc1N1CCCCC1)c1cccs1", "activity change, negative = growth inhibition": "inactive: -18.1%"}
{"smiles": "Cc1ccc(C)c(-n2nnc(C(=O)Nc3ccc(Br)cc3)c2C)c1", "Potency": "active: 10.3 µM"}
{"smiles": "O=C(CCN1CCCC1)Nc1ccc(Br)cc1", "activity change, negative = growth inhibition": "inconclusive: -31% [inhibitor]"}
{"smiles": "O=C(COC(=O)c1ccccn1)Nc1ccccc1OC(F)F", "activity change, negative = growth inhibition": "inactive: 3.24%"}
{"smiles": "COCCn1c(C)cc(O)c(C(c2ccc(OC)cc2)N2CCN(c3ccccc3)CC2)c1=O", "note": "(configuration not stated)", "activity change, negative = growth inhibition": "inactive: 4.25%"}
{"smiles": "CCCCC1(COC(=O)CCC(=O)O)C(=O)N(c2ccccc2)N(c2ccccc2)C1=O", "Potency": "active: 0.0023 µM"}
{"smiles": "CCCCNC(=S)NNC(=O)c1csc2ccccc12", "Potency": "inconclusive: 25.9 µM [inhibitor, single point]"}
{"smiles": "Cc1nc2sc(C(c3cccs3)N3CCN(Cc4ccccc4)CC3)c(O)n2n1", "note": "(configuration not stated)", "Potency": "active: 23.1 µM"}
{"smiles": "CC(C)Oc1ccc(/C=N/NC(=O)c2nnn(-c3nonc3N)c2CN(C)c2ccccc2)cc1", "Potency": "inconclusive: 29.1 µM [inhibitor, single point]"}
{"smiles": "CCN1CCN(c2nc(Nc3cccc(C)c3)nc(N)c2[N+](=O)[O-])CC1", "Potency": "inconclusive: 29.1 µM [inhibitor, single point]"}
{"smiles": "O=C1CCc2cc(S(=O)(=O)N3CCCCC3)cc3c2N1CCC3", "activity change, negative = growth inhibition": "inactive: 16.2%"}
{"smiles": "CCOCCn1c(=O)c2c(nc3n2CCN3c2ccc(C)c(C)c2)n(C)c1=O", "activity change, negative = growth inhibition": "inactive: 3.89%"}
{"smiles": "CCN(CCS(=O)(=O)c1ccc(Cl)cc1)C(=O)Nc1ccc(Cl)cc1", "activity change, negative = growth inhibition": "inactive: -14.6%"}
{"smiles": "COc1cccc(N2CCN(C(=O)C3CCN(S(=O)(=O)c4cn(C)cn4)CC3)CC2)c1", "activity change, negative = growth inhibition": "inactive: -1.69%"}
{"smiles": "N/C(=N\\OC(=O)c1ccccc1F)c1cccc([N+](=O)[O-])c1", "activity change, negative = growth inhibition": "inactive: -0.748%"}
{"smiles": "CCOC(=O)c1nnn(-c2ccccc2)c1C", "activity change, negative = growth inhibition": "inactive: -4.3%"}
{"smiles": "C=CCn1c(=O)c2ccccc2n2c(SCC(=O)Nc3cc(C)on3)nnc12", "Potency": "inconclusive: 25.9 µM [inhibitor, single point]"}
{"smiles": "COc1cccc(NC(=O)C(NCCC(C)C)c2ccccc2)c1", "note": "(configuration not stated)", "Potency": "inconclusive: 20.6 µM [inhibitor, single point]"}
{"smiles": "CC1CCCCN1C(=O)CSc1c2c(nc3cc(Cl)ccc13)CCCC2", "note": "(configuration not stated)", "Potency": "inconclusive: 29.1 µM [inhibitor, single point]"}
{"smiles": "Cc1c(C(=O)Nc2ccc(S(=O)(=O)N(C)C3CCN(C)CC3)cc2)oc2ccccc12", "Potency": "active: 20.6 µM"}
{"smiles": "COc1cccc(-c2nc(CS(=O)(=O)CC(=O)NCCc3ccc(Cl)cc3)c(C)o2)c1", "Potency": "inconclusive: 10.3 µM [inhibitor, partial curve]"}
{"smiles": "Cc1cc2c(cc1S(=O)(=O)NCc1ccccc1Cl)OCC(=O)N2", "Potency": "inconclusive: 29.1 µM [inhibitor, single point]"}
{"smiles": "Cc1ccc(-n2ncc3c(Nc4cccc(C(F)(F)F)c4)ncnc32)cc1C", "Potency": "active: 20.6 µM"}
{"smiles": "CCOC(=O)c1cc(NC(=O)Cc2ccc(S(=O)(=O)N3CCOCC3)s2)cc(C(=O)OCC)c1", "Potency": "active: 23.1 µM"}
{"smiles": "C/C(CC(=O)NCc1ccco1)=N\\NC(=O)CC#N", "activity change, negative = growth inhibition": "inactive: 0.116%"}
{"smiles": "COc1ncc2nc(-c3ccccc3)c(=O)n(CCC#N)c2n1", "activity change, negative = growth inhibition": "inactive: -10.8%"}
{"smiles": "O=C(NCC(c1ccco1)N1CCCC1)c1cccc(S(=O)(=O)N2CCOCC2)c1", "note": "(configuration not stated)", "activity change, negative = growth inhibition": "inactive: 0.206%"}
{"smiles": "O=S(=O)(c1cccc(Br)c1)N1CCN(CCc2ccccc2)CC1", "activity change, negative = growth inhibition": "inconclusive: -31.2% [inhibitor]"}
{"smiles": "O=C1NC[C@H](Cc2ccc(O)cc2)N(C[C@@H]2CCCN2C[C@H](Cc2ccccc2)N2C[C@H](Cc3ccc(O)cc3)N(CC3CCCCCC3)C(=O)C2=O)C1=O", "Potency": "inconclusive: 29.1 µM [inhibitor, single point]"}
{"smiles": "COc1ccc(-c2c(-c3ccc(O)cc3O)n[nH]c2C(F)(F)F)cc1", "Potency": "inconclusive: 14.6 µM [inhibitor, partial curve]"}
{"smiles": "COc1ccc(NC(=O)CN(C)S(=O)(=O)c2ccc3c(c2)c(=O)n(C)c(=O)n3C)cc1", "Potency": "inconclusive: 20.6 µM [inhibitor, single point]"}
{"smiles": "COc1ccc(C=O)cc1Cn1ccnc1C", "activity change, negative = growth inhibition": "inactive: -1.05%"}
{"smiles": "CS(=O)(=O)c1ccc(C(=O)NCc2ccc(F)cc2)cc1", "activity change, negative = growth inhibition": "inactive: 1.81%"}
{"smiles": "O=C(CCc1nc2ccccc2s1)OCC(=O)c1ccc[nH]1", "activity change, negative = growth inhibition": "inactive: 1.79%"}
{"smiles": "CC(C)c1ccc(NC(=O)c2cnc3sc(N4CCOCC4)nn3c2=O)cc1", "activity change, negative = growth inhibition": "inactive: -15.6%"}
{"smiles": "Cc1ccc(S(=O)(=O)N2CCN(C(=O)c3cc(S(=O)(=O)N4CCOCC4)ccc3F)CC2)cc1", "activity change, negative = growth inhibition": "inactive: -24.8%"}
{"smiles": "COCCN(C(=O)COC(=O)CCOc1cc(C)ccc1C)c1c(N)n(Cc2ccccc2)c(=O)[nH]c1=O", "activity change, negative = growth inhibition": "inactive: -4.02%"}
{"smiles": "COc1ccc(C2SCC(=O)N2c2ccc(OC)cc2)cc1", "note": "(configuration not stated)", "activity change, negative = growth inhibition": "inactive: -14.3%"}
{"smiles": "Cc1ccc(C(=O)NCC(c2ccco2)S(=O)(=O)c2ccc(Cl)cc2)cc1C", "note": "(configuration not stated)", "Potency": "active: 16.4 µM"}
{"smiles": "Cc1c(Cl)c([N+](=O)[O-])nn1CCCC(=O)Nc1c(Cl)cccc1Cl", "Potency": "inconclusive: 23.1 µM [inhibitor, single point]"}
{"smiles": "CCCCCCc1c(C)c2ccc(OCC(=O)N3CCC[C@H]3C(=O)O)c(C)c2oc1=O", "activity change, negative = growth inhibition": "inactive: -4.9%"}
{"smiles": "COc1cc(C(C)=O)ccc1COc1ccc(C(=O)O)cc1OC", "activity change, negative = growth inhibition": "inactive: 22%"}
{"smiles": "O=C(c1ccc(Cl)c(Cl)c1)c1cc(-c2ccccn2)c(N2CCOCC2)s1", "Potency": "inconclusive: 16.4 µM [inhibitor, single point]"}
{"smiles": "COc1ccc(-c2nc3ccc(Cl)cn3c2Nc2ccc(C)cc2)cc1", "Potency": "inconclusive: 25.9 µM [inhibitor, single point]"}
{"smiles": "COC(=O)c1ccc(C2Nc3cccc4cccc(c34)N2)cc1", "Potency": "active: 8.2 µM"}
{"smiles": "CCOC(=O)[C@H]1[C@H]2COc3ccc(Cl)cc3[C@@H]2N2C(=O)CN(Cc3ccc(C)cc3)C(=O)[C@@]12C", "Potency": "active: 18.4 µM"}
{"smiles": "CCOC(=O)c1oc2ccccc2c1COC(=O)C(C)NC(=O)c1ccco1", "note": "(configuration not stated)", "Potency": "inconclusive: 29.1 µM [inhibitor, single point]"}
{"smiles": "Cc1ccc(S(=O)(=O)N2CCC(NC(=O)c3cccc(C)c3)CC2)cc1", "activity change, negative = growth inhibition": "inactive: 0.922%"}
{"smiles": "Cc1c(/C=C/C(=O)c2ccc(C(C)C)cc2)cnn1C", "Potency": "inconclusive: 1.84 µM [inhibitor, partial curve, poor fit]"}
{"smiles": "CN(C)CCCOC(=O)CCc1ccccc1", "Potency": "inconclusive: 29.1 µM [inhibitor, single point]"}
{"smiles": "COc1ccc(N2CCN(CCCn3c(=S)[nH]c4ncccc4c3=O)CC2)cc1", "Potency": "inconclusive: 23.1 µM [inhibitor, partial curve]"}
{"smiles": "CC(C)(C)N1C(=O)[C@H]2[C@@H](c3ccc(Br)cc3)N3C(=O)N(c4cccc(F)c4)C(=O)[C@@]3(Cc3ccccc3)[C@H]2C1=O", "Potency": "inconclusive: 25.9 µM [inhibitor, single point]"}
{"smiles": "O=C1CCCc2c1[nH]c1ccccc21", "Potency": "inconclusive: 3.66 µM [inhibitor, partial curve]"}
